Whole data set: some 33,000 sequences, median “E-score (-0.5 to 0.5)” near -0.054, cut for the highest 2% near 0.35. Some of the results follow.
Each sequence was assayed against T1, Stb5 (UniProt P38699) (assay: PBM E-score (8-mer binding enrichment) (E-score (-0.5 to 0.5)); higher = stronger / more preferred TF binding; most listed sequences are background and not binding sites). Settings: protein concentration: 200 nM; construct: GST-full length.
T1 sequence: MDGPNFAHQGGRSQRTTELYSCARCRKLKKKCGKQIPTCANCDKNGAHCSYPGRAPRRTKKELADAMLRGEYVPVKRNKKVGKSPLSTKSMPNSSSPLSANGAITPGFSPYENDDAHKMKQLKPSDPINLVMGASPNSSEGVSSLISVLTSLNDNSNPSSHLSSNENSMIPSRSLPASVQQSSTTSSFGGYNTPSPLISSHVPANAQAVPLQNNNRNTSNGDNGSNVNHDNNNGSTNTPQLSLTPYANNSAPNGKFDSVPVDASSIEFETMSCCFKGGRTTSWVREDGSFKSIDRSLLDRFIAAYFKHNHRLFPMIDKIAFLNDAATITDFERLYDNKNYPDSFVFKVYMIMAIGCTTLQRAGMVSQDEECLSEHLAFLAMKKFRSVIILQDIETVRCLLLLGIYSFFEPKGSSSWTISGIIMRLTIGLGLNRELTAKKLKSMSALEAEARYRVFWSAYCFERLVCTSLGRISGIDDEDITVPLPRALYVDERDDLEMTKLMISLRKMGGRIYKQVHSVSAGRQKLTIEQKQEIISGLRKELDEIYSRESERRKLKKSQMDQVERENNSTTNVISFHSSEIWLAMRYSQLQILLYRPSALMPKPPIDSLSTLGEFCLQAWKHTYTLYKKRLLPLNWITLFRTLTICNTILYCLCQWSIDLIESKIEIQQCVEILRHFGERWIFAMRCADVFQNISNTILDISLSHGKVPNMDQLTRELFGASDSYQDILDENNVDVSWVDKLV
In short: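 Universal all-10-mer Agilent arrays, double-stranded by primer extension on fresh or once-stripped slides, were probed with about 100-200 nM GST-tagged yeast transcription factors made by PURExpress. Fluorescent anti-GST detected bound protein, and masliner normalised the scans. E-scores from the Universal PBM Analysis Suite were given to each ungapped eight-base word pooled with its reverse complement.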

Sequence	PBM E-score
CTAGCAAG	-0.269
GGAGAACA	-0.00473
CAAACCTG	-0.18
GGTAAAAC	0.165
ACAATCCG	0.0737
ATGGAGGA	-0.189
GAGGCCTA	-0.163
AGGGCGCA	-0.0165
CTGAGCGA	-0.239
CACGTATC	-0.0389
CAGGGTCA	-0.147
CTGTAGAA	-0.195
AGAGGAAA	-0.0456
GAGTCAGA	-0.0127
AAAAACGG	0.137
CCAATTAA	-0.137
AGTGTTAA	-0.0434
ACTAACAG	-0.0446
AACTCCGA	0.463
ACACAGAG	-0.0564
CCGTTATA	0.272
GATAGCAA	-0.074
ATGCATTA	-0.262
AGGACAAT	-0.175
ACTGAGCC	-0.125

Sequence	PBM E-score
AAAGCTTT	0.00048
AGTACGGA	0.205
ACTCAGAC	-0.132
ACAGCCCG	0.198
AAAACAGT	0.0132
ATAGTCTC	-0.00316
ACGCCTTG	-0.19
AGTCTGAA	-0.274
AAAAGGCC	0.254
AGAGAGAA	-0.236
CTGATGGA	-0.139
CCGGCTGC	0.111
CAATAAAA	-0.16
AATCTCTG	-0.302
ACATCAAC	-0.0505
AAACCCAG	-0.132
CCACCAAG	-0.0259
GACCAAGC	-0.0319
AATAACAC	0.28
AACATCCA	-0.0959
ATCAATGC	0.0163
GGACAAAC	0.0886
ATAGCCAG	-0.269
GAAAAGGA	-0.0613
CCTGATCG	-0.0812

Sequence	PBM E-score
ATTTGTGA	0.021
AAATTGAT	-0.0183
TCCTGCCA	-0.236
GAGCTAAA	-0.013
ACCTCCAA	-0.216
ATGGAAAA	-0.0267
ACGGGTCA	-0.0174
AAATACAT	-0.103
ACAACTGC	-0.246
AGGGACCT	-0.182
ATGATCTG	-0.186
CGCTGTGC	0.116
CAACATCC	0.00137
CGACAAGC	0.141
CCGGGAGC	0.16
AGGCTGAG	-0.028
CCAAAGTA	-0.0253
GAAGTTAA	-0.0172
CAAACCAC	-0.0998
ACATCAAT	-0.12
AGTACCCC	0.0442
AGGATGGA	-0.0596
ATTGCAAT	0.0889
ATCGACAA	-0.137
AGCATGTC	-0.214

Sequence	PBM E-score
GGATAACA	-0.0362
ACGTTCAA	-0.0811
ATATTAGG	-0.19
ATCAAAGA	-0.248
GATTCGGC	0.23
GCCTATCC	-0.129
CCCTAGAG	-0.166
TAACGACA	-0.0102
GTAGCTCA	-0.161
ATGTCAAT	-0.214
GAGTGGTA	-0.145
GTCCCCAC	-0.109
AGCCTGCG	-0.122
AATCGAAC	-0.199
AAACTAAT	0.0243
GTTACAAC	-0.00522
ATCTTCGG	0.187
ACGTGCCT	-0.175
ATTTGGGA	-0.112
ATCCCATC	-0.224
GACTAGAA	-0.00619
ATCGGCGG	0.363
CTTGGGTA	-0.128
ACATCAGC	0.0314
CGGACCCC	0.214

Sequence	PBM E-score
CTTCGAAC	-0.0695
GCCACTCA	-0.0669
GACTCACC	-0.137
TATAGGAA	-0.165
CAGTTGTC	-0.0815
GGACTGCA	-0.106
GTATCAGA	-0.0448
CCGAAGTC	0.163
CTACGCCA	-0.139
GCACACCC	-0.119
ACTACGCT	0.0319
TCAGGGCA	-0.218
TGCATCCA	-0.259
TCTGTTAA	-0.205
AGCACGCA	-0.202
AAACCCCT	0.153
ACATGAGA	-0.116
ATTAGAAC	0.0975
ACGGGTTG	-0.0554
GGTAAGCA	0.0288
ATGGGCGC	-0.0937
GATGTTCA	0.058
GACGGTCC	0.288
ACAAGTTG	-0.15
CAACGGGC	0.206

Sequence	PBM E-score
GCCAACGA	-0.244
AAATTTAG	-0.073
AACAAACA	-0.0614
CCGGAGCG	0.284
CCTGCGTC	-0.195
CTGTTATA	0.171
AAGCTATT	-0.0751
ACGACGAG	-0.257
GATTGTAA	-0.0108
CAACTTAG	-0.111
AAACGGAG	0.215
ATTTGTTG	0.0614
AGGCAAAG	-0.391
AATGGAGA	0.0934
ACTAGTCT	-0.238
CGGTAGGA	0.176
ATTCACGA	-0.174
GCCGCCGA	0.329
AGGGATAA	-0.21
GACCCTGC	-0.108
TACAAGTA	-0.108
GCACCGGC	0.353
AGGGCGTA	-0.0435
CGTGCCGA	0.212
ATCCTACG	-0.0474

Sequence	PBM E-score
ATAGGGAG	-0.352
ATAATCCA	-0.0209
GGGTACGA	-0.301
ATCTACAT	-0.193
ATATCCAG	-0.147
CCCACTTC	-0.168
TAAACATA	-0.0401
CCGGTCGA	0.245
AAACATAA	-0.221
CTTTAAAA	0.124
AATCTGAG	-0.0516
CAATACGA	0.0782
ACGGTCTG	-0.0746
GTGCCCAA	-0.151
GAGTATAC	0.023
CAGCTACA	-0.143
GCCTTGCC	-0.151
GACTAAGC	0.0417
CGGTTAGC	0.0831
ATTAAGTA	-0.0306
CGTTAATA	0.146
GGGACAAC	0.0253

From the supplement of paper PMC3334620
